In PubChem BioAssay AID1468 (National Center for Advancing Translational Sciences (NCATS), 2008):
The campaign covered roughly 280,000 compounds. About 1,100 (0.39%) were called active. This list was built around the results that the source calls inconclusive (neither active nor inactive); the mix of calls is not that of the screen. Calls follow the shape of the dose curve; as a rule, active = well fitted inhibition curve with a large enough effect; inconclusive = small, poorly fitted or top-dose-only effect, or effect the other way; inactive = flat fitted curve, though single readings scatter. A potency beside an inconclusive call is a rough fit, not a confirmed value.

target: Microtubule-associated protein tau (Homo sapiens) (UniProt P10636); experiment: qHTS for Inhibitors of Tau Fibril Formation, Fluorescence Polarization; settings: K18 P301L tau heparin fibrillization, Alexa594 FP, 6 h; series mostly up to 57.7 µM; activity, negative = inhibition: at the top concentration; also: nearly all actives have a fitted effect of over 55% in size
Procedure, shortened: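 Steps: dispense K18 P301L tau (15 uM plus 0.24 uM Alexa 594 tracer, final) in pH 7 sodium acetate; add compound; add heparin (20 uM final); incubate 6 hr, 37 C; add ThT (30 uM final); after 1 hr ambient, read FP.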
% is scaled to controls: 0 for no effect and ±100 for the full control effect; potency is read from the fitted curve at half-maximal effect; tags tell the direction and shape of the fitted curve.

Sequence of UniProt P10636 (P10636 whole entry, looked up): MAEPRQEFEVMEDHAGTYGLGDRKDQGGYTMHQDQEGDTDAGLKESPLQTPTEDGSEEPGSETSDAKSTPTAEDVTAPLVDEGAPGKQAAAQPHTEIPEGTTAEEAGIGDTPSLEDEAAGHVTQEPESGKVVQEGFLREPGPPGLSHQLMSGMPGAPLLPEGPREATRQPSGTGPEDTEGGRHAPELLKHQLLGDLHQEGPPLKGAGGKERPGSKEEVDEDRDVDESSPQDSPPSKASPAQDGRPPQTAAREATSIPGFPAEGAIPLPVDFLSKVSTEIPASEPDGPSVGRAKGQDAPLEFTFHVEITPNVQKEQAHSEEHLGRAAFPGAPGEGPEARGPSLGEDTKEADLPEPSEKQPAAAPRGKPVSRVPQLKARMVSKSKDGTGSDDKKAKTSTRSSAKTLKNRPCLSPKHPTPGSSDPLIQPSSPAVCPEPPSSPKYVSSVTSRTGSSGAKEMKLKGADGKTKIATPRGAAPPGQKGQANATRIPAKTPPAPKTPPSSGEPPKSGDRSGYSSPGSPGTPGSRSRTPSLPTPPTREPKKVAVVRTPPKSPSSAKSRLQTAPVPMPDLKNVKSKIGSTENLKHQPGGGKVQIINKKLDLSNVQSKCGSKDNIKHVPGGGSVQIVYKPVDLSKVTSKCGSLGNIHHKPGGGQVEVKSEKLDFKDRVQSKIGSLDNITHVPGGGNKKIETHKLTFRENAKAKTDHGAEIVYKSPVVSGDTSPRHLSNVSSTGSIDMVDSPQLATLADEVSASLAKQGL

Potency, inconclusive:
CCOC(=O)c1ccc(NC(=O)CC2C(=O)N(c3ccc(F)cc3)C(=O)N2CCC(C)C)cc1 (configuration not stated) 35.5 µM [inhibitor, single point]
Oc1cccc(-c2nc(-c3cccs3)c(-c3cccs3)[nH]2)c1 39.8 µM [inhibitor, single point]
COc1ccc(/C=C/C(=O)NC(=S)NCc2ccccc2)cc1OC 3.16 µM [inhibitor, single point]
O=C(OCCOCCN=C1NS(=O)(=O)c2ccccc21)C1CC(=O)N(c2ccccc2)C1 (configuration not stated) 8.91 µM [inhibitor, single point]
O=C(COC(=O)Cc1ccsc1)NC(c1ccccc1)c1ccccc1 3.16 µM [inhibitor, single point]
O=C(Nc1cccc(Cl)c1)Nc1nccs1 6.31 µM [inhibitor, partial curve]
Cc1cc(C)cc(NC(=S)NCCSc2ccc(Cl)cc2)c1 39.8 µM [inhibitor, single point]
CC1(C)CC(=O)C(C(c2ccco2)C2C(=O)CC(C)(C)CC2=O)C(=O)C1 22.4 µM [inhibitor, partial curve]
O=C(NC(=S)Nc1cccc(NC(=S)NC(=O)c2ccco2)n1)c1ccco1 17.8 µM [inhibitor, single point]
O=S(=O)(c1ccc2nc(Nc3cccc(F)c3)ccc2c1)N1CCCC1 7.94 µM [inhibitor, partial curve]
Cc1ccc(NC(=O)Cn2cc(C(=O)c3ccco3)c3ccccc32)cc1 28.2 µM [inhibitor, single point]
COc1ccc(C(C#N)N2N=C(c3ccccc3)CC2c2ccccc2)cc1OC (configuration not stated) 35.5 µM [inhibitor, single point]
Cc1ccc(S(=O)(=O)NCC(Nc2cccc(Cl)c2)c2ccccc2)cc1 (configuration not stated) 4.47 µM [inhibitor, full curve]
COc1cc(OC)c([N+](=O)[O-])cc1/C=N/NC(=O)c1ccncc1 28.2 µM [inhibitor, single point]
CCOc1ccccc1C1C(C(=O)Nc2ccccc2)=C(C)Nc2c(C(=O)Nc3ccc(F)cc3)cnn21 (configuration not stated) 39.8 µM [inhibitor, partial curve, poor fit]
COc1ccc(-c2cc3nccc(-c4cc(Cl)c(C)cc4O)n3n2)cc1 39.8 µM [inhibitor, single point]
N#CC1=C(N)Oc2c(sc3ccccc23)C1c1ccco1 (configuration not stated) 39.8 µM [inhibitor, single point]
O=C(Nc1cccc(C(=O)Nc2ccc(S(=O)(=O)O)c3cc(S(=O)(=O)O)cc(S(=O)(=O)O)c23)c1)Nc1cccc(C(=O)Nc2ccc(S(=O)(=O)O)c3cc(S(=O)(=O)O)cc(S(=O)(=O)O)c23)c1 22.4 µM [inhibitor, single point]
COc1ccc(C(=O)NCc2ccc(-c3nc4ccccc4s3)cc2)cc1OC 31.6 µM [inhibitor, partial curve]
CCN(C(=O)COc1cccc2cccnc12)C1CCS(=O)(=O)C1 (configuration not stated) 25.1 µM [inhibitor, partial curve]
CCOc1ccc(C(=O)c2cn(CC(=O)Nc3ccc(F)c(F)c3)c3cc4c(cc3c2=O)OCCO4)cc1 35.5 µM [inhibitor, partial curve, poor fit]
Cc1ccc(C2NCCS2)cc1 (configuration not stated) 39.8 µM [inhibitor, single point]
COc1ccc(C(=O)NCCn2cc(SCC(=O)Nc3ccc(F)cc3)c3ccccc32)cc1 22.4 µM [inhibitor, single point]
CCOc1ccc(Br)cc1S(=O)(=O)Nc1ccc(C(=O)Nc2ccc(C)cc2)cc1 14.1 µM [inhibitor, partial curve]
CC(=O)Nc1ccc(S(=O)(=O)Nc2cccc(-c3ccc(N4CCCCCC4)nn3)c2)cc1 25.1 µM [inhibitor, partial curve]
COc1ccc(-c2nc3ccccc3s2)cc1NC(=O)c1cccc([N+](=O)[O-])c1C 11.2 µM [inhibitor, partial curve]
O=c1c2ccccc2n(Cc2c(F)cccc2Cl)c(=O)n1Cc1ccccc1 25.1 µM [inhibitor, partial curve]
CC(C)N1CC(C(=O)O)CC1=O (configuration not stated) 2.51 µM [inhibitor, partial curve, poor fit]
CCOC(=O)c1sc2ncnc(N3CCN(c4ccc(OC)cc4)CC3)c2c1C 35.5 µM [activator, single point]
O=C(NCc1ccco1)c1nn2c(C(F)(F)F)cc(-c3cccs3)nc2c1Br 20 µM [inhibitor, partial curve]
COc1ccc(C2=C(C)C(=NCc3ccc(OC(C)C)cc3)NS2(=O)=O)cc1 35.5 µM [inhibitor, single point]
Cc1ccc(S(=O)(=O)N2CCN(Cc3ccc4c(c3)OCO4)CC2)cc1 44.7 µM [activator, single point]
O=C(CSc1nc2ccccc2nc1Cc1ccccc1F)Nc1cccc(C(F)(F)F)c1 3.98 µM [inhibitor, full curve]
COc1cc(C(=O)Nc2ccc(-c3nc4ccccc4o3)c(O)c2)cc(OC)c1OC 1.12 µM [inhibitor, full curve, poor fit]
CCCCC/C=C\C/C=C\CC1OC1C/C=C\CCCC(=O)O (configuration not stated) 0.199 µM [inhibitor, full curve, poor fit]
Cc1ccc(CN2c3ccccc3-c3nc(SCC(=O)Nc4c(C)cc(C)cc4C)ncc3S2(=O)=O)cc1 28.2 µM [inhibitor, single point]
Cc1c(NC(=O)c2cccc(NS(C)(=O)=O)c2)c(=O)n(-c2ccccc2)n1C 0.794 µM [inhibitor, full curve]

Potency, active:
CCCCSCCCNC(=O)c1c[nH]c2ccc(S(=O)(=O)Nc3cccc(OC)c3)cc2c1=O 2 µM
COc1cccc2c1C(=O)c1c(O)c3c(c(O)c1C2=O)C[C@@](O)(C(C)=O)C[C@@H]3O[C@H]1C[C@H](N)[C@H](O)[C@H](C)O1 25.1 µM

activity, negative = inhibition, inactive:
COC(=O)C1=C(C)N(Cc2ccco2)C(=O)/C1=C\c1ccc(N(C)C)cc1 -6.52%
O=C(N/N=C/c1ccccc1)c1[nH]c2ccc(Br)cc2c1-c1ccccc1 -8.6%
O=C(NC(=S)Nc1ccc(N2CCOCC2)c(Cl)c1)c1sc2ccccc2c1Cl -1.81%
CC[C@H](C)[C@@H](NC(=O)O[C@@H]1C(=O)c2ccc(OC)cc2O[C@H]1c1cccc(C(F)(F)F)c1)C(=O)OC 1.39%
CCCN(CCC)CCCNC(=O)c1sc2nc3n(c(=O)c2c1C)CCC3 5.22%
O=C(CSc1nc2ccccc2s1)NNC(=S)Nc1ccccc1 1.07%
CC1=CC(C)(C)Nc2ccc(OC(=O)CN3C(=O)CCC3=O)cc21 -3.96%
O=C(Cc1ccccc1)Nc1nnc2n1CCS2 -6.51%
CCC(C)NC(=O)Cn1c(=O)n(-c2ccc(C)c(C)c2)c(=O)c2c(C)c(C(=O)N(CC)CC)sc21 (configuration not stated) -9.74%
O=C(c1cc2sccc2n1Cc1ccccc1)N1CCc2ccccc21 0.53%
CCOC(=O)c1c(C)[nH]c(C=Nc2ccccc2)c1O -6.49%
CCc1ccc(Cc2cnc(NC(=O)C3=NCCN3)s2)cc1 2.85%
FC(F)(F)c1ccc2c(c1)N1CCCC1CN2 (configuration not stated) -6.77%
CCc1ccc(OCC(=O)O/N=C(\N)c2ccccn2)cc1 5.23%
CCc1ccc(NC(=O)N2CCC(N3CCN(Cc4ccc(C)cc4)C(=O)C3=O)CC2)cc1 -2.7%
CN(Cc1nc(-c2ccncc2)no1)S(=O)(=O)c1ccccc1 6.05%
COc1cccc(CNC(=O)C(Cc2ccccc2)NS(=O)(=O)c2ccc3c(c2)oc(=O)n3C)c1 (configuration not stated) -0.137%
O=C(O)C1CCCCC1C(=O)NCCc1cccc(Cl)c1 (configuration not stated) -3.61%
N#CC1=C(c2ccc(-c3ccccc3)cc2)COC1=O -0.0378%
N#CCC1c2ccccc2CCN1C(=O)Nc1ccc(Cl)cc1 (configuration not stated) -8.32%
CCOC(=O)c1c(C)n(C)c2cc(Br)c(O)c(O)c12 -9.9%
CC(=O)N1CC=CC1(CC(C)C)C(=O)NCc1ccc(C)o1 (configuration not stated) -19.7%
C=CCNC(=O)CSc1nc2cc(C(=O)OCC)ccc2n1CC 0.63%
O=C(CSc1ccc2nnc(-c3ccc(Cl)cc3)n2n1)N1CCCc2ccccc21 -1.86%
S=C(Nc1ccc(Oc2ccccc2)cc1)N1CCN(c2ccccn2)CC1 -4.73%
O=C(CCc1ccccc1)NC(=S)Nc1cc(C(F)(F)F)ccc1N1CCOCC1 -2.36%
CCN(CC)S(=O)(=O)c1ccc(N2CCOCC2)c(NC(=O)Cc2ccc(Cl)cc2)c1 -2.73%
Cc1ccc(CNc2ncnc3onc(C)c23)cc1 3.7%
CCc1cccc(C)c1Nc1c(-c2cccs2)nc2nc(C)cc(C)n12 8.27%
Cc1cn2c(=O)cc(COC(=O)c3ccc(NC(=O)COc4ccc(C)c(C)c4)cc3)nc2s1 -3.38%
Cc1c(C(=O)NN)sc(-c2ccccc2)c1C#N 3.14%
CCOc1ccccc1C(=O)N1CC(=O)Nc2ccc(C)cc2C1c1ccccc1 (configuration not stated) 2.02%
O=C(Nc1ccccc1)N(CCCN1CCOCC1)Cc1ccccc1F 2.69%
